In the RNAGym collection of RNA variant scans (doi:10.1093/nar/gkz1192) one finds self-cleavage data, which are given here for 167 variants.

To fix the notation:
B1: CPEB3 Ribozyme (parent)
chain: UAACAGGGGGCCACAGCAGAAGCGUUCACGUCGCAGCCCCUGUCAGAUUCUGGUGAAUCUGCGAAUUCUGCUGUAUAUCUC

The source gives no read counts; variants with many changes may rest on few reads.

Variants of B1 are the subject of this series. Put plainly: self-cleavage, relative activity (ratio to wild type); higher = more cleavage; in vitro, sequencing. A digest of the protocol:
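For each CPEB3 ribozyme variant, relative activity is its cleaved/total read fraction divided by the unmutated ribozyme's. Barcoded error-prone PCR libraries were transcribed by T7 RNA polymerase (5 hours, 37°C) and held in DNase I for 15 min before an EDTA stop, with cleavage occurring throughout. Template-switching reverse transcription and Illumina sequencing were used to read the RNAs. A 5-read minimum applied, and results are the mean of three batches.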
As for A13G A15G A28C, the self-cleavage is 0.36.
In the case of A13G A21U C27U C29U U48C it was 0.08; in that of A13G A15C A45U U51G A64G, 0.29.
To A13G A21G U54A U72C belongs 0.44; to A13C A21G A45U U49A C62U, 0.22.
In the case of A13G C17A U25C U41C U54A A56U A65C it was 0.04; in that of A13G A21G A28G A65U G70A, 0.16; in that of C12U C37G U43C U51G U67C C79U, 0.07.
With A13G A18G U26C U78C, the self-cleavage came to 0.34.
As for A13C U26A A28G A45G U74C A75G, the self-cleavage is 0.14.
On to C12G A28G A57G U58C U74A, for which the self-cleavage was determined as 0.16.
To A13G A15U G30A A35G belongs 0.23; to C12A U41A A45G A56G, 0.09.
To A13C A21G U26C A56G U60A belongs 0.2; to C12U A15G A20G U51C G70A, 0.11.
To A13G A28C U54C G73A belongs 0.59; to A13C U60C U66C U67G U72C, 0.07; to A13G A18U C37U U41C U72A U76C, 0.11.
Regarding C12U G24C U49C A57G U72C A77G, the self-cleavage stood at 0.04.
In the case of C12U A21G U51A U66C U67C it was 0.33; in that of C12A U31C A57C, 0.35; in that of A13C A56G U69C U78C, 0.36.
Turning to C12U U25C G30C G46C A57C G63A, the self-cleavage came out at 0.04.
To A13C G30A U43C belongs 0.4.
To C12A A35G U54C G61A U67A C79A belongs 0.25.
To C12U U43C U76A belongs 0.82.
As to C12A U31G G33C U49C U66C, the self-cleavage is 0.13.
In the case of C12G A35U U41C G53C A57C, the self-cleavage worked out at 0.29.
To C12U C14A U43A A45G U67C belongs 0.12.
In the case of A13G A28G A45U U51A it was 0.43; in that of A13G A15G U26A U69C, 0.16.
To A13G A21G U25C C40U U54A C79U belongs 0.03; to A13G A28G A45U A57G, 0.08; to A13G C27G C68G A75G U78C, 0.1.
Turning to A13G A35G U41C A45U, the self-cleavage amounted to 0.35.
To C12U A15G U31C U48C belongs 0.09.
To C12U A13U C40U U60C belongs 0.23; to C12U U25C U41A U43C, 0.25; to A13C A15G U25C A45G U60A, 0.35.
To A13G A20G A21G G22A C37A U41A A77C belongs 0.04; to A13G A18U U69C U74C, 0.22.
As to A13C A45U A56U U60C, the self-cleavage is 0.06.
In the case of A13G A18G U31C U66A it was 0.34; in that of C12A A15G C32A A56G A57G, 0.07.
As to A13G A21G A28U C39A A45U A56G A65U, the self-cleavage came out at 0.06.
To A13G A15G C39A A56G U60A belongs 0.22; to C12U G19U U60A, 0.12; to C12U U41C A75G, 1.23.
In the case of A13G C14U A28G U41A A57G it was 0.04; in that of A13G A45G U49C, 0.15; in that of A13G A15U U41A U48C, 0.06.
To A13G A21G A57G U66C A75U belongs 0.75.
With A13G A18G A28G A64U, the self-cleavage worked out at 0.23.
In the case of C12U A45G A65G C81U it was 0.56; in that of A13G A28G U43C U60C A65G, 0; in that of C12U U26G A65G, 0.09.
To C12A U25C U26C U31A U43A belongs 0.11; to A13C A35U G36U U51C A75G, 0.08; to C12U A35G U41A U66C U72C, 0.12.
To C12A G33A U41A belongs 0.12.
With A13G A20U G46A U48A, the self-cleavage came to 0.09.
In the case of A13G A35G C40U U60C A65G U69C it was 0.1; in that of A13C A28G U60C A64G C68A, 0.23; in that of A13G A56C A64G, 0.24.
To C12U U54C U67C belongs 0.31; to A13G A28G A45C G53A U72A U76C, 0.04; to C12G A18U U26A, 0.1.
To A13C U26C C39A belongs 0.19.
Regarding C12G A13G C17G, the self-cleavage stood at 0.31.
To C12U A18G A28G U31C A45G C59A belongs 0.26; to A13C A45U U51A, 0.28; to A13G A20G U25C U31A U48C U74A U80C, 0.02.
In the case of A13G A18G A20U A45G, the self-cleavage was found to be 0.23.
To A13G A57G U67C U76C belongs 0.33; to C12U A20G A65G U80C, 0.29; to A13G A21G U51A, 0.55.
On to A13C U31C A56G, for which the self-cleavage was 0.26.
In the case of A13G A20G A28U G53U U69C U74A it was 0.26; in that of A13C A45G C50U U78C, 0.54; in that of A13C A15U C29A U41C U66C U69C A77G, 0.09.
In the case of C12U A18G U67A C71A A75G it was 0.17; in that of A13G A21G U76C, 0.53.
In the case of A13G A15U U31A A35U U54C A56G U60A it was 0.11; in that of A13G A45C C71G, 0.32.
For C12A A18G U49C U54C U66C U80A, the self-cleavage came to 0.14.
As to C12U A18G A20G A64G, the self-cleavage was 0.28.
To A13G A15G C50G U51C belongs 0.21; to C12A A18U C68A U80C, 0.2.
In the case of A13G A21G U43C it was 0.25; in that of C12U C44A U60C, 0.16; in that of C12U A28G U69C, 0.5.
To A13G A47U A64G belongs 0.15; to C12U A28G A35U A64G U76C U80C, 0.17.
Take C12A C23A U26C U43C A45G U54C: the self-cleavage is 0.08.
To C12U G19A A21G U26C U41C belongs 0.06; to A13C G24A U60A, 0.37; to A13C C14U U25C U48C U67C, 0.1.
To A13C G36A U43C A45U U66C U69A U80A belongs 0.12; to C12U U43C A56G, 0.54.
In the case of A13G A28C G73A, the self-cleavage stood at 0.72.
In the case of A13G A21G C34A C71U U72G it was 0.07; in that of A13G A15U U54C U80C, 0.63; in that of C12U U25C U78C, 0.16.
In the case of A13G A21U U51C G53A U80C it was 0.35; in that of C12U A21G U54C, 1.06; in that of C12A A35U A57C A75U, 0.84.
To A13G A21U U25C U69C belongs 0.06; to C12U A18G G24A U48C A65U, 0.03; to A13G A15U U43C U48C, 0.39.
On to A13G A18C U51A G53A A65U, for which the self-cleavage came to 0.15.
To C12U A35U A45U U48A belongs 0.17; to C12U A18U A28G A47C U48A U51A, 0.11.
Regarding C12A A35U U43C U67C, the self-cleavage stood at 0.07.
In the case of A13C A15G U31C U51A it was 0.3.
In the case of A13C A20G A28U U54A it was 0.29; in that of A13C A18G A35G A45U U54C U76A, 0.55; in that of A13G A28C U48C U72A, 0.1.
To A13C A20C U31A belongs 0.12; to A13G C14U A20G U26C G42U A75G, 0.12; to C12G U26C U31A A35U U69C U72A U80C, 0.03.
Turning to C12U G24A A64U U74G, the self-cleavage came to 0.14.
In the case of C12U C14U A18G A47G G53A A75G it was 1.18; in that of A13G A21U C32A U48G U51C A64U, 0.09.
In the case of A13C C39G A45U U58C U66A it was 0.13; in that of A13G A18G U31A U72G, 0.32.
In the case of A13C G22A U25C U26A U60A C71G it was 0.06.
Take C12U U31C U41C A64U U76C A77U: the self-cleavage came to 0.29.
With C12U A21U A45C, the self-cleavage worked out at 0.12.
To A13C U26C A45U belongs 0.25.
To C12U U31G U66A U80G belongs 0.4; to C12U A45G A47G, 0.79.
As to C12A A18G U31C A35U, the self-cleavage was 0.09.
In the case of C12U U54C U66C it was 0.67; in that of C11U U67G A77G, 0.35; in that of A13C A15U A20U, 0.3.
In the case of A13G A18U G19C U60C U67C it was 0.12; in that of C12U G19U A28G U72C, 0.29; in that of C12A A13G A18G U41C A64G U66C, 0.19.
In the case of A13C G19U A20U U26C U78C U80A it was 0.06; in that of C12A A56U U69C, 0.29.
As to C12A C17G A18U U25C U60G C62U, the self-cleavage came to 0.06.
To A13G C17G U26A G30A U43C belongs 0.21; to A13G A35G G46A, 0.44.
With A13G A57G A65G U69A, the self-cleavage worked out at 0.11.
In the case of C12A A13U A21G G24A U58C it was 0.29.
In the case of A13G A15G C38U A75U it was 0.16; in that of A13G A15U U25C C29U G46A, 0.07.
For C12A A45G U78C, the self-cleavage was found to be 0.83.
In the case of A13C U31C A47G U54C U60C A65G U72A it was 0; in that of A13G A15U A18U, 0.44; in that of A13G A45G U76A, 0.74.
To A13G C23A A45G U48C U72A belongs 0.05; to A13G A18G U78C, 0.17.
As to A13G C23G A28G U43C U69A U76C, the self-cleavage turned out to be 0.03.
In the case of C12U U25A U69C it was 0.1; in that of C12U A13U A15U C29U U74A, 0.69.
In the case of A13C A21G C27U A35G U54A C59A U67C it was 0.08.
In the case of C12U C38U U72C it was 1.3; in that of A13C A20G U51A A64G U72A, 0.15; in that of C12A A13U A28U, 0.93.
On to A13G A20G C44A, for which the self-cleavage came out at 0.09.
In the case of C12U A18C U51C U60A it was 0.27; in that of A13G C27A U78C, 0.21; in that of A13C U26C A28G U43A U48C U54A, 0.1.
In the case of A13G A18G U58C A75G it was 0.21; in that of C12G A13U U25C C40A, 0.05; in that of C12A A13G U31C A56G U67C, 0.1.
